This note sets out measurements from patent US20230287125A1 (LEPU BIOPHARMA, published 2023).

Assay [1] has as its target T1, human TGF-β1 protein (human, UniProt P01137 in part).
T1 construct: also called human TGF-β1 protein (Acro, TG1-H4212); recombinant human TGF-β1
The experiment in a line: ELISA, molecule titrated on coated human TGF-β1, anti-human IgG Fc-HRP, OD 450nm.

The target of a further assay is human TGF-β protein (human, UniProt P01137 in part, The mature TGF-β1 is a disulfide-linked homodimer; one protomer is given.). The experiment in a line: cell-based or functional assay.
Assay [2] concerns the target T1, human TGF-β1 protein. As to the kind of experiment: ELISA, molecule titrated on coated human TGF-β1, OD450 nm; left panel. From the text: (§1) After washing, the plates were developed with TMB substrate and analyzed by spectrophotometer at OD 450 nm.
On the technique in general: In an ELISA, binding on a coated surface is turned into a signal by an enzyme label.

Assay [3] addresses T1, human TGF-β1 protein. The experiment in a line: ELISA, molecule titrated on coated human TGF-β1, OD 450nm; right panel.
From the text: as §1

What is called EC50 is the concentration that produces a half-maximal response. High values mean a need for much substance, low ones an effect from little substance.

T1 sequence (P01137 279-390 limits assumed): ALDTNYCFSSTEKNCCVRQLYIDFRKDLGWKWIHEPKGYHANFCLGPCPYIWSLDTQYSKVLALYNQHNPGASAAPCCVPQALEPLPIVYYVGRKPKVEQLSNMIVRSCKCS
Chain of human TGF-β protein (P01137 279-390 limits assumed): as above

B1: LP008-02-3 (other)
heavy: EVQLVQSGAEVKKPGASVKVSCKASGYTFTDFWVSWVRQAPGQGLEWMGEIYPNSGVSRYNEKFKGRVTMTVDKSISTAYMELSRLRSDDTAVYYCTKYFGYTYWFGYWGQGTLVTVSSASTKGPSVFPLAPSSKSTSGGTAALGCLVKDYFPEPVTVSWNSGALTSGVHTFPAVLQSSGLYSLSSVVTVPSSSLGTQTYICNVNHKPSNTKVDKRV[not shown - human IgG1 Fc]GGGGSGGGGSGGGGSGGGGSGGGGSTAGHTQTSTGGGAITTGTSGAGHGPQLCKFCDVRFSTCDNQKSCMSNCSITSICEKPQEVCVAVWRKNDENITLETVCHDPKLPYHDFILEDAASPKCIMKEKKKPGETFFMCSCSSDECNDNIIFSEEYNTSNPD
light: DIQMTQSPSSLSASVGDRVTITCRASKSVSTYMHWYQQKPGKQPKLLIYSASHLESGVPSRFSGSGSGTDFTLTISSLQPEDFATYYCQQSNELPVTFGGGTKVEIKRTVAAPSVFIFPPSDEQLKSGTASVVCLLNNFYPREAKVQWKVDNALQSGNSQESVTEQDSKDSTYSLSSTLTLSKADYEKHKVYACEVTHQGLSSPVTKSFNRGEC
notes: modified LP008-02; also called Molecule 3
On to B1, for which the EC50 is 0.28 nM with human TGF-β1 protein [1] and 0.768 nM with human TGF-β1 protein [2]. Moreover, the “IC50, TGF-β SBE luciferase reporter assay in 293 cells” value with human TGF-β protein worked out at 0.164 nM.

B2: LP008-02-7 (other)
heavy: EVQLVQSGAEVKKPGASVKVSCKASGYTFTDFWVSWVRQAPGQGLEWMGEIYPNSGVSRYNEKFKGRVTMTVDKSISTAYMELSRLRSDDTAVYYCTKYFGYTYWFGYWGQGTLVTVSSASTKGPSVFPLAPSSKSTSGGTAALGCLVKDYFPEPVTVSWNSGALTSGVHTFPAVLQSSGLYSLSSVVTVPSSSLGTQTYICNVNHKPSNTKVDKRV[not shown - human IgG1 Fc]GGGGSGGGGSGGGGSHYPQLCKFCDVRFSTCDNQKSCMSNCSITSICEKPQEVCVAVWRKNDENITLETVCHDPKLPYHDFILEDAASPKCIMKEKKKPGETFFMCSCSSDECNDNIIFSEEYNTSNPD
light: DIQMTQSPSSLSASVGDRVTITCRASKSVSTYMHWYQQKPGKQPKLLIYSASHLESGVPSRFSGSGSGTDFTLTISSLQPEDFATYYCQQSNELPVTFGGGTKVEIKRTVAAPSVFIFPPSDEQLKSGTASVVCLLNNFYPREAKVQWKVDNALQSGNSQESVTEQDSKDSTYSLSSTLTLSKADYEKHKVYACEVTHQGLSSPVTKSFNRGEC
notes: modified LP008-02; also called Molecule 7
As for B2, the results for the EC50 with human TGF-β1 protein [3] and with human TGF-β1 protein [1] were 1.06 nM and 0.267 nM, respectively.

B3: LP008-02-6 (other)
heavy: EVQLVQSGAEVKKPGASVKVSCKASGYTFTDFWVSWVRQAPGQGLEWMGEIYPNSGVSRYNEKFKGRVTMTVDKSISTAYMELSRLRSDDTAVYYCTKYFGYTYWFGYWGQGTLVTVSSASTKGPSVFPLAPSSKSTSGGTAALGCLVKDYFPEPVTVSWNSGALTSGVHTFPAVLQSSGLYSLSSVVTVPSSSLGTQTYICNVNHKPSNTKVDKRV[not shown - human IgG1 Fc]SGGGGSGGGGSGGGGSGGGGSGGGGSHYPQLCKFCDVRFSTCDNQKSCMSNCSITSICEKPQEVCVAVWRKNDENITLETVCHDPKLPYHDFILEDAASPKCIMKEKKKPGETFFMCSCSSDECNDNIIFSEEYNTSNPD
light: DIQMTQSPSSLSASVGDRVTITCRASKSVSTYMHWYQQKPGKQPKLLIYSASHLESGVPSRFSGSGSGTDFTLTISSLQPEDFATYYCQQSNELPVTFGGGTKVEIKRTVAAPSVFIFPPSDEQLKSGTASVVCLLNNFYPREAKVQWKVDNALQSGNSQESVTEQDSKDSTYSLSSTLTLSKADYEKHKVYACEVTHQGLSSPVTKSFNRGEC
notes: modified LP008-02; also called Molecule 6
As for B3, the EC50 worked out at 0.944 nM in the assay with human TGF-β1 protein [3] and 0.328 nM with human TGF-β1 protein [1].
